Measurements from article PMC7819943, “Rice protein-binding microarrays: a tool to detect cis-acting elements near promoter regions in rice”.
This is one part of the list.

The sequences below were run against T1, OsWOX13 (Oryza sativa, UniProt Q5QMM3 1-267) (assay: protein-binding microarray (RPBM); PBS, 2% BSA, 51.3 ng/ul salmon testes DNA, 50 uM zinc acetate, 200 nM TF, 25 C, 1 h; high values mean tight binding). Details: protein: recombinant; tags: N-terminal polyhistidine and DsRed monomer fusion (pET32a); label: CyDye5-dUTP incorporated in the synthesized complementary strand; 3' TTTTT single-stranded linker to array surface; dsDNA, one strand shown.
T1 sequence: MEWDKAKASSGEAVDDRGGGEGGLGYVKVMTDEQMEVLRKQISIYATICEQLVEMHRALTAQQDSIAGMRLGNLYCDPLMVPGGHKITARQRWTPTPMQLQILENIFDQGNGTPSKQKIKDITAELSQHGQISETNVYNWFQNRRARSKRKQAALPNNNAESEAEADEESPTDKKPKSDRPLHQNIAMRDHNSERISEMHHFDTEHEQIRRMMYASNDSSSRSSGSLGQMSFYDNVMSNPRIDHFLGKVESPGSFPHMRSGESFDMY
Method in brief: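 Transcription factors were each fused at the N-terminus to a polyhistidine tag plus DsRed and expressed in E. coli BL21-CodonPlus before Ni–NTA purification. Binding to a double-stranded custom Agilent array was carried out with 200 nM protein at 25 °C for 1 h in PBS, 2% BSA, salmon testes DNA and 50 µM zinc acetate. The binding signal is per-feature fluorescence intensity, in arbitrary units, on an Axon 4000B scanner.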

Going from “AATCTTGTAATAGATTTAACGATTTAAAATTATGTGAAACCGGAGTCACCTAGTGCAG” to “GCTGACTAACTAATTGTAGAGGATTGGGTAGGTTTGATTTCGGAGTCACCTAGTGCAG”, the binding signal rises from 8900 fluorescence intensity (a.u.) to 31900 fluorescence intensity (a.u.).

First: TGGGACAGATTGAGATAGTTGAGGATTCGTAGCCCGGCGGCGGAGTCACCTAGTGCAG
Second: TACAAATTGATTGGCTATAGGTCAAATAGTGGATCCTAGACGGAGTCACCTAGTGCAG
The binding signal of the first is lower: 18100 fluorescence intensity (a.u.) for the first, 56000 fluorescence intensity (a.u.) for the second.

Going from “TTCCTAATCTGTTTCCATTTTCTGCTTAGGAATTTATAGGCGGAGTCACCTAGTGCAG” to “CGCTCAGATTGATTTCATTTTAAATCATAACATTATTCAGCGGAGTCACCTAGTGCAG”, the binding signal rises from 3270 fluorescence intensity (a.u.) to 47000 fluorescence intensity (a.u.).

Compared with “AACAGCAATTTACTGAGATTATTATTGCCACGAGCTCTACCGGAGTCACCTAGTGCAG”, “ATCCCTATTCTAATTACAGGCAAGTCACAACATTATTATACGGAGTCACCTAGTGCAG” is lower in binding signal: 6580 fluorescence intensity (a.u.) for the first, 3480 fluorescence intensity (a.u.) for the second.

First: CTGCGATTGATTCGGCCTCTGAAAATCGATCATGGAATTCCGGAGTCACCTAGTGCAG
Second: TTAATTAGAACTTGGTGTTGAACGTACTACCTGATGATCTCGGAGTCACCTAGTGCAG
The binding signal of the first is higher: 16500 fluorescence intensity (a.u.) for the first, 6400 fluorescence intensity (a.u.) for the second.

Compared with “TACCTGTAAATCATTTTCATTACTGTTGTGGGGATGCTCACGGAGTCACCTAGTGCAG”, “TCTTGATAGAGATTTTGACTGATGATTAGGTAGTAGTGAGCGGAGTCACCTAGTGCAG” is higher in binding signal: 3230 fluorescence intensity (a.u.) for the first, 48100 fluorescence intensity (a.u.) for the second.

Going from “CCTGATGATCAACCAGCATAAAGGAGAGGCTTCTGGTTGGCGGAGTCACCTAGTGCAG” to “TAAATTTTAAGTTATTTATTTATTATGTGGTAATAGCTCACGGAGTCACCTAGTGCAG”, the binding signal falls from 5310 fluorescence intensity (a.u.) to 3350 fluorescence intensity (a.u.).

Going from “GCGATGGGAGGTGGGCGACGCGAGGGAGAGGGGAGAGGGGCGGAGTCACCTAGTGCAG” to “ATCAATAATCATATCGTCGTCTTCTCTGGGAGACCCGGAGCGGAGTCACCTAGTGCAG”, the binding signal falls from 6590 fluorescence intensity (a.u.) to 3950 fluorescence intensity (a.u.).

Going from “CTCTTAGCCGCAATAAATAATTACATCAATTTCAGAGTAACGGAGTCACCTAGTGCAG” to “GGTCATAATTTAGCTCAATCTGCTGTTTGGTTCATTGGTTCGGAGTCACCTAGTGCAG”, the binding signal rises from 3280 fluorescence intensity (a.u.) to 17100 fluorescence intensity (a.u.).

Going from “GCCAATCAGTTAAGCCTGACATATTAATATTTAAGGGGTTCGGAGTCACCTAGTGCAG” to “ACCTCAATCTTATCCAAAACGATAATTAGTATAGAACCAGCGGAGTCACCTAGTGCAG”, the binding signal falls from 26000 fluorescence intensity (a.u.) to 6880 fluorescence intensity (a.u.).

Compared with “AAAACTAATGTTATGATAATGATTATAGTTATTTTATAAGCGGAGTCACCTAGTGCAG”, “AAATATTGATATAACTATATGATTTTGTTAATGACATGTTCGGAGTCACCTAGTGCAG” is higher in binding signal: 4590 fluorescence intensity (a.u.) for the first, 14900 fluorescence intensity (a.u.) for the second.

First: AATTTGATTTCCTCTTCTTTTGTTGCTTAATTTCAGTCTCCGGAGTCACCTAGTGCAG
Second: TTTTCAACAATCAATTTTATATATTAGAATACGTTTATAACGGAGTCACCTAGTGCAG
The binding signal of the first is higher: 5580 fluorescence intensity (a.u.) for the first, 4000 fluorescence intensity (a.u.) for the second.

First: CAAGTTTAATTTGAAAAGTTTCAGATTAAATTTTGAGTATCGGAGTCACCTAGTGCAG
Second: GCAGGAAGTAATTTTCCCATCAAATTTACTTGGGTTTGAGCGGAGTCACCTAGTGCAG
The binding signal of the first is higher: 10100 fluorescence intensity (a.u.) for the first, 4350 fluorescence intensity (a.u.) for the second.

Going from “GTTAATTAATTTCATACTCGCTATATTATTGGTCCTTCCTCGGAGTCACCTAGTGCAG” to “CAATGATTGTTATGTAACTAGGGTATGCAGCTGTAGTATACGGAGTCACCTAGTGCAG”, the binding signal falls from 41100 fluorescence intensity (a.u.) to 40400 fluorescence intensity (a.u.).

Going from “CTAAAATTAGCAAAGACTCGCAGCGTAAAGACGCCATGCCCGGAGTCACCTAGTGCAG” to “TCCTTGACATACAAGTTTAAAACTTAACCCGAGTCTTCTCCGGAGTCACCTAGTGCAG”, the binding signal rises from 5420 fluorescence intensity (a.u.) to 8970 fluorescence intensity (a.u.).

Compared with “TTTGATTTGGTAAATTCCAAACTGCCGTATTTGAAACGGGCGGAGTCACCTAGTGCAG”, “AACGAAATTGGCCCAGCACACGCCAAGCTCAAGCAGGCCACGGAGTCACCTAGTGCAG” is lower in binding signal: 40800 fluorescence intensity (a.u.) for the first, 4580 fluorescence intensity (a.u.) for the second.

First: TCTTTGATGTTTCACGCATGATAGATAAATGTGTTTCAACCGGAGTCACCTAGTGCAG
Second: CAGGATTGAAATACCCTAACACATTAAATTATATTCCCTCCGGAGTCACCTAGTGCAG
The binding signal of the first is lower: 3240 fluorescence intensity (a.u.) for the first, 33700 fluorescence intensity (a.u.) for the second.

Going from “ACTATTGATGTTAATGATTCGATAGTTCAATTATTTTATCCGGAGTCACCTAGTGCAG” to “ATAAACCCTGATTAAAACCAGACAAATTGCTGGACTCGGCCGGAGTCACCTAGTGCAG”, the binding signal falls from 8140 fluorescence intensity (a.u.) to 7960 fluorescence intensity (a.u.).

Compared with “CTCTCAATTCAAATCACCCACGTCAACAGAAGTAATCAGCCGGAGTCACCTAGTGCAG”, “TATATTGATGGAAGTATTATATATCATTAATATCTTTAGCCGGAGTCACCTAGTGCAG” is higher in binding signal: 4570 fluorescence intensity (a.u.) for the first, 24000 fluorescence intensity (a.u.) for the second.

First: TATGATAAATTTAGTGTTAATTCTATAGTTTTGTGATACACGGAGTCACCTAGTGCAG
Second: GTATAAACTGAATGTTGTTGATCTTGGTTAGGTGGAAGGCCGGAGTCACCTAGTGCAG
The binding signal of the first is higher: 23400 fluorescence intensity (a.u.) for the first, 9240 fluorescence intensity (a.u.) for the second.

First: AGATAAATCAAAATTCAACATGTAAACAAAGTTGGAGAACCGGAGTCACCTAGTGCAG
Second: AGCACGATATATAGATTGAACTGCTAGTTGCCTCGTGTTACGGAGTCACCTAGTGCAG
The binding signal of the first is lower: 4590 fluorescence intensity (a.u.) for the first, 6510 fluorescence intensity (a.u.) for the second.
